Reference: article PMC4336329 (PLoS ONE, 2015)
Hit rate of the full screen: of about 310,000 compounds, about 14,000 (4.5%) showed an effect of 50% or more. The effect is printed as a negative number. The list shows a part of the results.

molecular target: human ether-à-go-go-related gene (hERG) potassium channel (human, UniProt Q12809); test: primary screen, population patch clamp on CHO cells stably expressing hERG
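Further: peak tail current of the secondary pulse compared with the same well before compound.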

Sequence of human ether-à-go-go-related gene (hERG) potassium channel (Q12809 whole entry, looked up): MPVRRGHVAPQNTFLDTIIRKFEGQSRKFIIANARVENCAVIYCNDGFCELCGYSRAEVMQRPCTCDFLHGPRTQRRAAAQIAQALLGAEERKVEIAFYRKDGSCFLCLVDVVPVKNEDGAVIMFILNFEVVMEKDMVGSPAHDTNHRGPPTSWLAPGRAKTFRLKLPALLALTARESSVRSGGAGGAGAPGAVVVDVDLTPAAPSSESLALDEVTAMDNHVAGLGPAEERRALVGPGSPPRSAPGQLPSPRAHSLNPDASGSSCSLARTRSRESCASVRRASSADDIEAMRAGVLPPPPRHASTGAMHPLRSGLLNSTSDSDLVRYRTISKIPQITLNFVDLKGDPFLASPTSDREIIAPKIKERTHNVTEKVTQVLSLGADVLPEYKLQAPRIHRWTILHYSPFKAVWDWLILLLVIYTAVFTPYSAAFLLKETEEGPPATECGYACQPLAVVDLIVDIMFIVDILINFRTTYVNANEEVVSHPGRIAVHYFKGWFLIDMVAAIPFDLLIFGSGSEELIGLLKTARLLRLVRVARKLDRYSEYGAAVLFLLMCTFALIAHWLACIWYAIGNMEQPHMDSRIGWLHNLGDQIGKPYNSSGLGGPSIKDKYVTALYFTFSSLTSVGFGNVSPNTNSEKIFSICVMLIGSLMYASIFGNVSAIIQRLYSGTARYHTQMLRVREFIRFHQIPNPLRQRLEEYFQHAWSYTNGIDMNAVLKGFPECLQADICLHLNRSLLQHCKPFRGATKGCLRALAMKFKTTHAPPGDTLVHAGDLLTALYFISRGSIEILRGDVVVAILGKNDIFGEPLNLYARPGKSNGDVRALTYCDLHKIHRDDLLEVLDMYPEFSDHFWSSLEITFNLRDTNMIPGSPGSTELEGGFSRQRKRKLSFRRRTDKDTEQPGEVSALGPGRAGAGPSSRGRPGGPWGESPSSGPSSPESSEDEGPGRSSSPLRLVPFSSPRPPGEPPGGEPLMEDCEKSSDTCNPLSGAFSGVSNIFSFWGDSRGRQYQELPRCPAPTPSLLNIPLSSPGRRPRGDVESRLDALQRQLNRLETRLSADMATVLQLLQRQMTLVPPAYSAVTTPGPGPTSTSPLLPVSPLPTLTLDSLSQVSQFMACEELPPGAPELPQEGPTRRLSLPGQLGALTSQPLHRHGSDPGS

Compound	hERG current change (%, negative = inhibition) at 10uM [%]
CSCC[C@@H](C(=O)NCCCCCCCCCCC(=O)N1CCN(C(=O)OC(C)(C)C)CC1)n1cc(CCO)nn1	9.05
Cc1ccccc1NC(=O)CSc1nc2n(n1)CCCCC2	22.7
CCOC(=O)c1ccc(NC(=O)CSc2nc3c(c(=O)n2C)SC(C)C3)cc1 (stereo not drawn)	-14
COc1ccc(C2=NOC(C(=O)Nc3cccnc3)C2)cc1 (stereo not drawn)	-4.33
O=C(O)C1=C[C@@H](c2ccc(F)cc2)C[C@@H](OCCCCO)O1	10.4
CC(=O)N/C(=C\c1ccccc1)C(=O)OCc1cc(C)ccc1C	-49.8
Cc1cc(C)nc(/N=C(\N)Nc2ccc(S(=O)(=O)Nc3nc(C)cc(C)n3)cc2)n1.Cl	38
Cc1nc2sc(C(c3ccco3)N3CC(C)OC(C)C3)c(O)n2n1 (stereo not drawn)	-19.4
COc1ccc(CNC(=O)CS(=O)Cc2nc(-c3ccc(OC)c(OC)c3)oc2C)cc1 (stereo not drawn)	-9.07
CC(C)(C)NC(=O)CN1C(=O)/C(=C/c2ccccc2)SC1=S	10
CCSc1ncc(CO)c(N)n1	12.1
CCC(C)c1ccc(S(=O)(=O)N2CCN3CCCC3C2)cc1 (stereo not drawn)	2.84
COC(=O)c1c(NC(=O)c2ccc(Br)o2)sc(C)c1C	12.3
COc1ccc(OC)c(NC(=O)C2CCC(CNc3c(N4CCOCC4)c(=O)c3=O)CC2)c1 (stereo not drawn)	18.1
CC(C)Cc1ccc(C(C)C(=O)OCC(=O)c2c[nH]c3ccccc23)cc1 (stereo not drawn)	3.98
COC(=O)/C=C/c1ccc(OC(=O)OC)c(OC(=O)OC)c1	16.6
COc1ccc(C2C(C(C)=O)=C(C)Nc3ncnn32)c(OC)c1OC (stereo not drawn)	12.8
CCOC(=O)C1CCCCN1Cc1ccc(OC)c(OC)c1 (stereo not drawn)	8.2
CN(C)CC(C)(C)CNS(=O)(=O)CC12CCC(CC1=O)C2(C)C (stereo not drawn)	5.78
Cc1c(NCc2cc(Cl)cc(Cl)c2O)c(=O)n(-c2ccccc2)n1C	-21.1
Cc1ccc(N2C(S)=C(C#N)C(=O)NC2c2cccs2)cc1 (stereo not drawn)	15.2
COC(=O)C1ON2OC(C(=O)OC)C(C(=O)OC)C2C1CC(C)=O (stereo not drawn)	17.1

Compound	hERG current change (%, negative = inhibition) at 10uM [%]
COc1ccc(-c2c(C)nc3c(-c4ccsc4)cnn3c2N)cc1	4.86
CCc1ccc(C2N(c3ccc(OC)cc3)C(=O)C3CCCN32)cc1 (stereo not drawn)	-8.05
CCN1CCC(O)(c2ccccc2)C(C(=O)c2ccccc2)C1 (stereo not drawn)	-7.58
C(#Cc1ccc2c(c1)COc1c3ccccc3nn1-2)c1ccccc1	2.08
Cc1c(Cl)cccc1NC(=O)CN1CCC(C(O)(c2ccccc2)c2ccccc2)CC1	-12.3
COC(=O)c1csc(S(=O)(=O)N2CCCCC2)c1OC	-6.23
O=C(COc1ccc(Cl)cc1)N1CCN(C2CCCC2)CC1.O=C(O)C(=O)O	-83.2
CC(=O)NCC(O)c1ccc([N+](=O)[O-])cc1 (stereo not drawn)	13.6
O=C(NC1=NCCS1)c1ccccc1Br	15
C/C(=N\NC(=O)c1ccc(Cn2cc([N+](=O)[O-])cn2)o1)c1cccc(NC(=O)c2cccnc2)c1	6.77
COc1ccc(CNC(=O)c2cc(S(=O)(=O)N3CCCC3)cn2C)cc1	13.2
Cc1ccc(NC(=O)CSc2ncnc3ccccc23)cc1S(=O)(=O)N1CCCCC1	-14.1
CCc1c(C)nc(SCC(=O)N2C(C)CCCC2C)[nH]c1=O (stereo not drawn)	26.7
Br.COc1ccc(-c2csc(Nc3ccc(O)cc3)n2)cc1	7.99
COC(=O)C(NC(C)=O)(Nc1sc2c(c1C(N)=O)CCCC2)C(F)(F)F (stereo not drawn)	17.8
CCOC(=O)C1(CC2CC2)CCN(S(=O)(=O)/C=C/c2ccccc2)CC1	-18.4
N#Cc1c(Cn2cncn2)nc(=O)n(-c2ccccc2)c1N	15.8
CCCn1c(Nc2nc3ccccc3n2C)nc2ccccc21	1.67
CN(C)c1ccc(C(=S)N2CCCCC2)cc1Br	7.12
CCOC(=O)C1CCN(C(=O)C2(NC(=O)Nc3ccccc3C)CCCCC2)CC1	19.9
CN(C)C(=O)C1C2NC(=S)N(c3ccccc3)C1(C)Oc1ccccc12 (stereo not drawn)	-2.29
CCCOc1ccc(Cl)cc1CN1CCOCC1.Cl	-0.916

Compound	hERG current change (%, negative = inhibition) at 10uM [%]
COc1ccc(CNC(=S)N/N=C(/C)c2ccccc2)cc1	-6.47
COc1ccc(OCCCC(=O)Nc2cc([N+](=O)[O-])ccc2C)cc1	-1.95
Cc1cc(C)c(S(=O)(=O)Nc2ccc[nH]c2=O)c(C)c1	0.123
Cc1ccc(CNC(=O)Cc2cccs2)cc1	8.71
O=C(Nc1c2c(nc3c1CCC3)CCCC2)c1ccccn1	-18.8
COc1cccc(C2c3[nH]c4ccccc4c3CCN2Cc2ncc[nH]2)c1 (stereo not drawn)	-49.4
O=C1COc2ccc(S(=O)(=O)N3CCN(c4cccc(C(F)(F)F)c4)CC3)cc2N1	15.3
c1ccc(-c2cnc(CSc3nnc4ccccn34)o2)cc1	3.41
Cc1cc(NS(=O)(=O)c2ccc(NC(=S)NC(=O)c3ccc(Cl)cc3Cl)cc2)no1	-10.5
O=C1c2c(O)cc(O)cc2O[C@H](c2ccc(O)c(O)c2)[C@@H]1O	20.1
CC(C)C[C@H]1COCCS(=O)(=O)N1Cc1cccc(C(F)(F)F)c1	0.3
CC(C)NS(=O)(=O)c1ccc(CCC(=O)N2CCCCC2)cc1	9.5
CC(C)NC(=O)C12CC3CC(C1)CC(n1cnc(Cl)n1)(C3)C2	-4.87
CC(NC(=O)c1ccccc1)C(=O)NC1=NCCS1 (stereo not drawn)	6.89
CCCN1C(=O)c2cc(C(=O)Nc3ccccc3C)ccc2C1Nc1ccccc1C (stereo not drawn)	-8.84
C/C(=N\OCc1ccc(C#N)cc1)c1cc2ccccc2o1	-4.95
O=C(NC1(Cc2ccccc2)CCN(CCc2cccs2)C1=O)c1ccccc1 (stereo not drawn)	-1.81
Cc1ccc(S(=O)(=O)N[C@H](C(=O)N2CCC(C(=O)N[C@@H](CCC(N)=O)C(=O)O)CC2)C(C)C)cc1	12.3
O=C(NCCc1ccccn1)c1nc(Cn2cc([N+](=O)[O-])cn2)no1	1.15
O=C(Cn1c(=O)c(=O)n(Cc2ccccc2)c2ccc(Cl)cc21)Nc1cc(F)ccc1F	-20.4
CCOC(=O)c1ccc(S(=O)(=O)NCC(c2ccc(N(C)C)cc2)c2c[nH]c3ccccc23)cc1 (stereo not drawn)	7.71
CCN(/C=N/c1sc2c(c1C#N)CC(C)(C)NC2(C)C)CC	11.8

Compound	hERG current change (%, negative = inhibition) at 10uM [%]
O=C(N/N=C/c1ccccn1)c1cc(-c2ccccc2)nc2ccccc12	-20.1
O=C(CN1CCN(S(=O)(=O)c2ccc3ccccc3c2)CC1)N1CCc2ccccc2C1	-1.4
c1ccc(-n2cnnc2SCc2cn3ccsc3n2)cc1	7.19
CC(CN1CCCCCC1)C(=O)NN (stereo not drawn)	22.2
Cc1nc(Nc2ccccc2)sc1C(=O)c1ccccc1	3.81
CCCn1c(C(C)Nc2nc(-c3ccc(Cl)c([N+](=O)[O-])c3)cs2)nc2cc(Cl)c(N3CCCCC3)cc21 (stereo not drawn)	19.2
Cc1cc(-c2cc(C(=O)Nc3ccccc3)on2)nc(NCC2CC2)n1	14.9
COc1cccc(NC(=O)CN(C)CC(=O)Nc2ccccc2-c2ccccc2)c1	-16.5
COc1ccc(-n2nc([N+](=O)[O-])c(=NCCCN3CCCC3=O)n2O)cc1	-0.829
Cc1ccc(C)c(OCC(=O)Nc2ccc(S(=O)(=O)Nc3ccccn3)cc2)c1C	-9.39
CCCCNC(=O)COC(=O)C1CCN(S(=O)(=O)c2ccc3c(c2)OCCO3)CC1	-2.75
O=C(CSc1nnc(CNc2ccc(F)cc2)o1)OC1CCCCC1	15
CCN1C(=O)/C(=C\c2ccncc2)SC1=S	3.89
CC(C)(C)n1nc2c(c1NC(=O)c1ccccc1)CS(=O)(=O)C2	5.08
CC(C)(C)C(=O)Nc1ccc(C(=O)Nc2cc(NC(=O)c3ccc(NC(=O)C(C)(C)C)cc3)cc(C(=O)O)c2)cc1	6.62
O=C(Nc1ccccc1)N1CCCN(c2nccc(C(F)(F)F)n2)CC1	-5.36
CC(=O)NC1(c2cccc(F)c2)CCN(C(=O)Nc2ccc(C#N)cc2)CC1	-13.8
CC(=O)NC1=NC(=O)/C(=C/c2cc(C)n(-c3ccc(NC(C)=O)cc3)c2C)S1	9.27
CN(C)CCCN(C(=O)c1ccc(S(=O)(=O)N2CCCc3ccccc32)cc1)c1nc2ccc(F)cc2s1.Cl	-17.1
COC(=O)c1ccc(S(=O)(=O)N2CCc3ccccc3C2)cc1	27.7
COc1ccc(S(=O)(=O)N2CCCCC2)cc1C(=O)N1CCCCCC1	0.615
